The values below come from patent US8067379B2, “Sulfur compounds as inhibitors of hepatitis C virus NS3 serine protease” (Schering Corporation, priority 2004, dated 2011).

For the first experiment, the target named is Recombinant heterodimeric HCV NS3/NS4A protease (strain 1a) (Hepatitis C virus genotype 1a, UniProt P27958). Kind of experiment: Spectrophotometric assay for HCV serine protease inhibitory activity (chromogenic ester substrates). Conditions: Table 3, sulfide compounds; HCV serine protease; read-out: Ki* range. In kind it is biochemical.
Regarding `CSCC1(NC(=O)N[C@H](C(=O)N2C[C@H]3[C@@H]([C@H]2C(=O)NC(CC2CC2)C(=O)C(N)=O)C3(C)C)C(C)(C)C)CCCCC1` (stereo partly drawn) [Compound 108], the Ki was less than 75 nM.

As for `CSCCC1(NC(=O)N[C@H](C(=O)N2C[C@H]3[C@@H]([C@H]2C(=O)NC(CC2CC2)C(=O)C(N)=O)C3(C)C)C(C)(C)C)CCCCC1` (stereo partly drawn) [Compound 116], the Ki was less than 75 nM.

Take `CC(C)(NC(=O)N[C@H](C(=O)N1C[C@H]2[C@@H]([C@H]1C(=O)NC(CC1CC1)C(=O)C(N)=O)C2(C)C)C(C)(C)C)SCc1ccccc1` (stereo partly drawn) [Compound 109]: the Ki is less than 75 nM.

Regarding `C#CCCC(NC(=O)[C@@H]1[C@@H]2[C@H](CN1C(=O)[C@@H](NC(=O)NC1(CSc3ccccc3)CC1)C(C)(C)C)C2(C)C)C(=O)C(=O)NCC=C` (stereo partly drawn) [Compound 111], the Ki is 75 to 250 nM.

The experiment is the same for the next values; noted with them: Table 3, sulfone compounds, rows without Prep. Ex. number; read-out: Ki* (numeric value, unlabelled structures at end of sulfone table, column without head).
Regarding `C#CCCC(NC(=O)[C@@H]1[C@@H]2[C@H](CN1C(=O)[C@@H](NC(=O)NC1(CS(=O)(=O)C(C)(C)C)CCCCC1)C1(C)CCCC1)C2(C)C)C(=O)C(=O)NCCC` (stereo partly drawn), the inhibition constant (Ki) amounted to 13 nM.

Take `C#CCCC(NC(=O)[C@@H]1[C@@H]2[C@H](CN1C(=O)[C@@H](NC(=O)NC1(CS(=O)(=O)C(C)(C)C)CCCCC1)C1(C)CCCCC1)C2(C)C)C(=O)C(=O)NCCC` (stereo partly drawn): the Ki amounted to 4 nM.

Consider `C#CCCC(NC(=O)[C@@H]1[C@@H]2[C@H](CN1C(=O)[C@@H](NC(=O)NC1(CS(=O)(=O)C(C)(C)C)CCCCC1)C1(C)CCCCC1)C2(C)C)C(=O)C(=O)NC1CC1` (stereo partly drawn), for which the inhibitory constant (Ki) came out at 6 nM.

Staying with this experiment, now noted: Table 3, sulfone compounds; HCV serine protease; read-out: Ki* range.
In the case of `C=CCNC(=O)C(=O)C(CCC)NC(=O)[C@@H]1[C@@H]2[C@H](CN1C(=O)[C@@H](NC(=O)N[C@@](C)(CC(C)C)CS(=O)(=O)C(C)(C)C)C(C)(C)C)C2(C)C` (stereo partly drawn) [Compound 287], the Ki was greater than 250 nM.

In the case of `C=CCNC(=O)C(=O)C(CCC)NC(=O)[C@@H]1[C@@H]2[C@H](CN1C(=O)[C@@H](NC(=O)NC1(CS(=O)(=O)c3ccccn3)CCCCC1)C(C)(C)C)C2(C)C` (stereo partly drawn) [Compound 257], the inhibition constant (Ki) is less than 75 nM.

Turning to `CCCNC(=O)C(=O)C(CCC)NC(=O)[C@@H]1[C@@H]2[C@H](CN1C(=O)[C@@H](NC(=O)NC1(CS(C)(=O)=O)CCCCC1)C(C)(C)C)C2(C)C` (stereo partly drawn) [Compound 226], the Ki is less than 75 nM.

Consider `CC(C)(C)O[C@@H]1C[C@@H](C(=O)NC(CC2CCC2)C(=O)C(N)=O)N(C(=O)[C@@H](NC(=O)NC2(CS(=O)(=O)C(C)(C)C)CCCCC2)C2CCCCC2)C1` (stereo partly drawn) [Compound 302], for which the Ki is less than 75 nM.

`CC(C)[C@@H](CS(=O)(=O)C(C)(C)C)NC(=O)N[C@H](C(=O)N1C[C@H]2[C@@H]([C@H]1C(=O)NC(CC1CCC1)C(=O)C(N)=O)C2(C)C)C1CCCCC1` (stereo partly drawn) [Compound 156]: the Ki was less than 75 nM.

For `CC(C)(C)[C@H](NC(=O)NC1(CS(=O)(=O)C(C)(C)C)CCCCC1)C(=O)N1C[C@H]2[C@@H]([C@H]1C(=O)NC(C(=O)C(N)=O)C1CCC1)C2(C)C` (stereo partly drawn) [Compound 274], the inhibition constant (Ki) is less than 75 nM.

Turning to `C#CCCC(NC(=O)[C@@H]1[C@@H]2[C@H](CN1C(=O)[C@@H](NC(=O)NC1(CS(C)(=O)=O)CCCCC1)C(C)(C)C)C2(C)C)C(=O)C(=O)NCC=C` (stereo partly drawn) [Compound 185], the inhibition constant Ki is less than 75 nM.

Turning to `C#CCCC(NC(=O)[C@@H]1[C@@H]2[C@H](CN1C(=O)[C@@H](NC(=O)NC1(CS(=O)(=O)C(C)(C)C)CCCCC1)C(C)(C)C)C21CC1)C(=O)C(=O)NCC=C` (stereo partly drawn) [Compound 272], the inhibition constant Ki was less than 75 nM.

Staying with this experiment, now noted: Table 3A; class symbols; read-out: Ki* Range.
In the case of `C=CCNC(=O)C(=O)C(CCC(C)C)NC(=O)[C@@H]1[C@@H]2[C@H](CN1C(=O)[C@@H](NC(=O)NC1(CS(=O)(=O)C(C)(C)C)CCCCC1)C(C)(C)C)C2(C)C` (stereo partly drawn) [Compound 581], the Ki is less than 75 nM.

For the compound `CCCC[C@H](NC(=O)[C@@H]1[C@@H]2[C@H](CN1C(=O)[C@@H](NC(=O)NC1([C@@H]3OCCS3(=O)=O)CCCCC1)C1(C)CCCCC1)C2(C)C)C(=O)C(=O)NCC` [Compound 883-dm], the inhibition constant (Ki) is less than 75 nM.

On to `CCCNC(=O)C(=O)[C@H](CC1CC1)NC(=O)[C@@H]1[C@@H]2[C@H](CN1C(=O)[C@@H](NC(=O)NC1([C@H]3CCCCS3(=O)=O)CCCCC1)C(C)(C)C)C2(C)C` [Compound 883-ct], for which the Ki is less than 75 nM.

Consider `CC1(C)[C@@H]2[C@@H](C(=O)NC(CCC3CC3)C(=O)C(=O)NC3CC3)N(C(=O)[C@@H](NC(=O)NC3(CS(=O)(=O)C(C)(C)C)CCCCC3)C3CCCCC3)C[C@@H]21` (stereo partly drawn) [Compound 555], for which the Ki was less than 75 nM.

As for `C=CCNC(=O)C(=O)C(CC1CC1)NC(=O)[C@@H]1[C@H]2CC(C)(C)O[C@H]2CN1C(=O)[C@@H](NC(=O)NC1(CS(=O)(=O)C(C)(C)C)CCCCC1)C(C)(C)C` (stereo partly drawn) [Compound 561], the Ki was less than 75 nM.

As to `CC1([C@H](NC(=O)NC2(CS(=O)(=O)C(C)(C)C)CCCCC2)C(=O)N2C[C@H]3[C@@H]([C@H]2C(=O)NC(CC2CC2)C(=O)C(=O)NC2CC2)C3(C)C)Cc2ccccc2C1` (stereo partly drawn) [Compound 624], the Ki was in the range of 75 to 250 nM.

As to `CC1([C@H](NC(=O)NC2(CS(=O)(=O)C(C)(C)C)CCC(F)(F)CC2)C(=O)N2C[C@H]3[C@@H]([C@H]2C(=O)NC(CC2CC2)C(=O)C(=O)NC2CC2)C3(C)C)CCCCC1` (stereo partly drawn) [Compound 540], the Ki was less than 75 nM.

As to `C=CCNC(=O)C(=O)[C@H](CCCC)NC(=O)[C@@H]1[C@@H]2[C@H](CN1C(=O)[C@@H](NC(=O)NC1([C@H]3CC(C)(C)CCS3(=O)=O)CCCCC1)C(C)(C)C)C2(C)C` [Compound 883-j], the inhibition constant Ki was less than 75 nM.

As for `C=CCNC(=O)C(=O)[C@H](CCC)NC(=O)[C@@H]1[C@@H]2[C@H](CN1C(=O)[C@@H](NC(=O)NC1(C3CCCCS3(=O)=O)CCCCC1)C(C)(C)C)C2(C)C` (stereo partly drawn) [Compound 821], the Ki is less than 75 nM.

For `CC1([C@H](NC(=O)NC2(CS(=O)(=O)C(C)(C)C)CCCCC2)C(=O)N2C[C@H]3[C@@H]([C@H]2C(=O)NC(CCC2CC2)C(=O)C(=O)NCc2nccs2)C3(C)C)CCCCC1` (stereo partly drawn) [Compound 604], the inhibition constant Ki was less than 75 nM.

With `CCCC[C@H](NC(=O)[C@@H]1[C@@H]2[C@H](CN1C(=O)[C@@H](NC(=O)NC1(CS(=O)(=O)C(C)(C)C)CCCCC1)C1(C)CCCCC1)C2(C)C)C(=O)C(=O)NCC` [Compound 883-aq], the Ki was in the range of 75 to 250 nM.

Take `CC(C)CC(NC(=O)[C@@H]1[C@@H]2[C@H](CN1C(=O)[C@@H](NC(=O)NC1(CS(=O)(=O)C(C)(C)C)CCCCC1)C1(C)CCCCC1)C2(C)C)C(=O)C(=O)NC1CC1` (stereo partly drawn) [Compound 572]: the inhibition constant (Ki) lay in the range of 75 to 250 nM.

In the case of `C=C(F)CNC(=O)C(=O)[C@H](CCC1CC1)NC(=O)[C@@H]1[C@@H]2[C@H](CN1C(=O)[C@@H](NC(=O)NC1(CS(=O)(=O)C(C)(C)C)CCCCC1)C1(C)CCCCC1)C2(C)C` [Compound 883-be], the Ki is less than 75 nM.

`CC(C)(C)[C@H](NC(=O)NC1(CS(=O)(=O)C(C)(C)C)CCCCC1)C(=O)N1C[C@H]2[C@@H]([C@H]1C(=O)N[C@@H](CCC1CC1)C(=O)C(=O)NCCF)C2(C)C` [Compound 883-ee]: the Ki was less than 75 nM.

As for `C=CCNC(=O)C(=O)[C@H](CC1CC1)NC(=O)[C@@H]1[C@@H]2[C@H](CN1C(=O)[C@@H](NC(=O)NC1(CS(=O)(=O)C(C)(C)C)CC3CCC(C3)C1)C(C)(C)C)C2(C)C` (stereo partly drawn) [Compound 667], the Ki was less than 75 nM.

As for `CCNC(=O)C(=O)[C@H](CCC1CC1)NC(=O)[C@@H]1[C@@H]2[C@H](CN1C(=O)[C@@H](NC(=O)NC1([C@@H]3OCCS3(=O)=O)CCCCC1)C1(C)CCCCC1)C2(C)C` [Compound 883-dk], the Ki was less than 75 nM.

As to `C=CCNC(=O)C(=O)C(CCC1CC1)NC(=O)[C@@H]1[C@@H]2[C@H](CN1C(=O)[C@@H](NC(=O)NC1(CS(=O)(=O)C(C)(C)C)CCCCC1)C1(C)CCCC1)C2(C)C` (stereo partly drawn) [Compound 605], the Ki was less than 75 nM.

As for `C=CCNC(=O)C(=O)[C@H](CC1CC1)NC(=O)[C@@H]1[C@@H]2[C@H](CN1C(=O)[C@@H](NC(=O)NC1(CS(=O)(=O)C(C)(C)COC3CCCCO3)CCCCC1)C(C)(C)C)C2(C)C` (stereo partly drawn) [Compound 747], the Ki is less than 75 nM.

As to `CCCNC(=O)C(=O)[C@H](CCC1CC1)NC(=O)[C@@H]1[C@@H]2[C@H](CN1C(=O)[C@@H](NC(=O)NC1([C@@H]3CCCCS3(=O)=O)CCCCC1)C1(C)CCCCC1)C2(C)C` [Compound 883-bn], the inhibition constant Ki was less than 75 nM.

Regarding `C=CCNC(=O)C(=O)[C@H](CCCC)NC(=O)[C@@H]1[C@@H]2[C@H](CN1C(=O)[C@@H](NC(=O)NC1(CS(=O)(=O)C3(CO)CCCCC3)CCCCC1)C1(C)CCCCC1)C2(C)C` [Compound 883-ay], the Ki was less than 75 nM.

With `CC(C)(C)[C@H](NC(=O)NC1(CS(=O)(=O)C2(C)CCOCC2)CCCCC1)C(=O)N1C[C@H]2[C@@H]([C@H]1C(=O)N[C@@H](CCC1CC1)C(=O)C(=O)NC1CC1)C2(C)C` [Compound 882], the inhibition constant Ki was less than 75 nM.

For the compound `CC1([C@H](NC(=O)NC2([C@@H]3CCCS3(=O)=O)CCCCC2)C(=O)N2C[C@H]3[C@@H]([C@H]2C(=O)N[C@@H](CCC2CC2)C(=O)C(=O)NC2CC2)C3(C)C)CCCCC1` [Compound 835], the inhibition constant (Ki) was less than 75 nM.

Consider `CCC[C@H](NC(=O)[C@@H]1[C@@H]2[C@H](CN1C(=O)[C@@H](NC(=O)NC1([C@@H]3CCS3(=O)=O)CCCCC1)C(C)(C)C)C2(C)C)C(=O)C(=O)NC1CC1` [Compound 869], for which the Ki was less than 75 nM.

For the compound `C=CCNC(=O)C(=O)[C@@H](CCCC)NC(=O)[C@@H]1[C@@H]2[C@H](CN1C(=O)[C@@H](NC(=O)NC1(CS(=O)(=O)C(C)(C)C)CCCCC1)C(C)(C)C)C2(C)C` [Compound 698], the inhibition constant Ki is 75 to 250 nM.

On to `C#CCCC(NC(=O)[C@@H]1[C@@H]2[C@H](CN1C(=O)[C@@H](NC(=O)NC1(CS(=O)(=O)C(C)(C)C)CCCCC1)C1(C)CCCCC1)C2(C)C)C(=O)C(=O)NCC1CCC1` (stereo partly drawn) [Compound 422], for which the inhibition constant Ki was less than 75 nM.

The same experiment, now with this note: Table 4A; read-out: Ki* Range.
As for `C=CCNC(=O)C(=O)C(CCCC)NC(=O)[C@@H]1[C@@H]2[C@H](CN1C(=O)[C@@H](NC(=O)N[C@H](CS(=O)(=O)N(C)C(C)(C)C)C(C)C)C1CCCCC1)C2(C)C` (stereo partly drawn) [Compound 1108], the Ki is less than 75 nM.

The experiment is the same for the next values; noted with them: Table 5; read-out: Ki*.
For `C=CCNC(=O)C(=O)C(CC1CC1)NC(=O)[C@@H]1C2[C@H](CN1C(=O)[C@@H](NC(=O)NC1(CS(=O)(=O)C(C)(C)CC)CCCCC1)C(C)(C)C)C2(C)C` (stereo partly drawn), the inhibition constant (Ki) was determined as 14 nM.
